Where a chain is given by its changes, count along the chain named. Numbers in names are those of the source. Results are given in words; binding and its absence hold for the method and conditions named. Some entries that bind do so weakly or less than the wild type. For some assays here: Where a sequence is shown, tags or fusion partners need not be part of it.
How the values were obtained:
[1] = molecular target: T1, τ60 (Tfc8), τB subunit of endogenous S. cerevisiae TFIIIC, fused with a C-terminal TAP-tag (S. cerevisiae) (UniProt Q12308); test: SEC; endogenous TFIIIC purified from yeast by the TAP tag on τ60 (heparin, IgG Sepharose, TEV, MonoQ), then Superose 6 10/300 in 25 mM HEPES pH 7.5, 150 mM NaCl, 1 mM DTT; SDS-PAGE of an elution peak fraction
T1 sequence: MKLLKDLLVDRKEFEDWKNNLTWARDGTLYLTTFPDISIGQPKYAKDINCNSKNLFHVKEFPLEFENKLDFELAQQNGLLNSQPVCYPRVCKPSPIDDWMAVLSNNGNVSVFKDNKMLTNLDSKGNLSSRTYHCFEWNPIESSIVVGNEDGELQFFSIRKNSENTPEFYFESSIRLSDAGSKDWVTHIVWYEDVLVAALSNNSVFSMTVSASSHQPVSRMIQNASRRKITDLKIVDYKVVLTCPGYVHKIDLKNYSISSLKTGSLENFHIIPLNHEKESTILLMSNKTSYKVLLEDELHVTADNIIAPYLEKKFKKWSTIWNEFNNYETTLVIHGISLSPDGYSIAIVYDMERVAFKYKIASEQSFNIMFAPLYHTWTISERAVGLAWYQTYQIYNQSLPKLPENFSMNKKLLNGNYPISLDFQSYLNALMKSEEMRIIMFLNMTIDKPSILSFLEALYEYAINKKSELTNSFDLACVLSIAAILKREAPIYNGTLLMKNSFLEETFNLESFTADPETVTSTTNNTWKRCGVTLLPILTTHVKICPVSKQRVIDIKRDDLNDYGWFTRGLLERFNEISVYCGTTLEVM

[2] = molecular target: T2, τ138 (546–641), extended winged helix (eWH) domain (S. cerevisiae) (UniProt P34111); test: ITC; MicroCal ITC200; 15 μM τ138 in the cell, 150 μM τ131 in the syringe; 20 mM Tris pH 7.5, 150 mM NaCl, 2 mM β-mercaptoethanol; 25 °C; both purified
T2 sequence: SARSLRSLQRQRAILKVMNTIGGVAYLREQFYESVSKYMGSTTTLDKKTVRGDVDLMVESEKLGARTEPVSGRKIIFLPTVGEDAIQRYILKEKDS

[3] = molecular target: T3, τ138 (641–693), τ131-Interaction Region (τIR) (S. cerevisiae) (UniProt P34111); test: as above
T3 sequence: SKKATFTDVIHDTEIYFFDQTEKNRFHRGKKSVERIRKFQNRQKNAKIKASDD

[4] = molecular target: T4, τ138 (546–693), eWH-τIR (S. cerevisiae) (UniProt P34111); test: as above
T4 sequence: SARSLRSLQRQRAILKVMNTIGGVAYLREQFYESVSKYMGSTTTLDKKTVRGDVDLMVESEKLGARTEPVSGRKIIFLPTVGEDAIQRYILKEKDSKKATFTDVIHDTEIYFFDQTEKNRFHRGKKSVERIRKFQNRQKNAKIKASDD

[5] = molecular target: T5, GST-τ138 (641–693) (S. cerevisiae) (UniProt P34111); test: pull-down; 15 μg GST-τ138 (641–693) on Glutathione Sepharose 4B; 900 nM wild-type or mutant τ131; 50 mM Tris pH 7.5, 150 mM NaCl, 2 mM DTT, 0.1% Tween20; 4 °C, 4 h; both purified
T5 sequence: T3 sequence

B1: τ95 (Tfc1), τA subunit of endogenous S. cerevisiae TFIIIC (natural protein, UniProt P32367 1-649, looked up)
chain: MPVEEPLATLSSIPDSSADQAPPLIADEFTLDLPRIPSLELPLNVSTKHSSIQKAIKMCGGIEKVKEAFKEHGPIESQHGLQLYLNDDTDSDGSKSYFNEHPVIGKRVPFRDESVILKVTMPKGTLSKNNNSVKDSIKSLKDSNKLRVTPVSIVDNTIKFREMSDFQIKLDNVPSAREFKSSFGSLEWNNFKSFVNSVPDNDSQPQENIGNLILDRSVKIPSTDFQLPPPPKLSMVGFPLLYKYKANPFAKKKKNGVTEVKGTYIKNYQLFVHDLSDKTVIPSQAHEQVLYDFEVAKKTKVYPGTKSDSKFYESLEECLKILRELFARRPIWVKRHLDGIVPKKIHHTMKIALALISYRFTMGPWRNTYIKFGIDPRSSVEYAQYQTEYFKIERKLLSSPIVKKNVPKPPPLVFESDTPGGIDSRFKFDGKRIPWYLMLQIDLLIGEPNIAEVFHNVEYLDKANELTGWFKELDLVKIRRIVKYELGCMVQGNYEYNKYKLKYFKTMLFVKESMVPENKNSEEGMGVNTNKDADGDINMDAGSQMSSNAIEEDKGIAAGDDFDDNGAITEEPDDAALENEEMDTDQNLKVPASIDDDVDDVDADEEEQESFDVKTASFQDIINKIAKLDPKTAETMKSELKGFVDEVDL
notes: τ95 (Tfc1), subunit of S. cerevisiae TFIIIC, endogenous subunit in the purified complex; source: endogenous, purified from S. cerevisiae strain SC2342 as part of TFIIIC (TAP tag on τ60)
[1]
  binding: binds

B2: τ55 (Tfc7), τA subunit of endogenous S. cerevisiae TFIIIC (natural protein, UniProt Q12415 1-435, looked up)
chain: MVVNTIYIARHGYRSNWLPEGPYPDPLTGIDSDVPLAEHGVQQAKELAHYLLSLDNQPEAAFASPFYRCLETVQPIAKLLEIPVYLERGIGEWYRPDRKPVIPVPAGYEILSKFFPGVISQEWDSTLTPNEKGETEQEMYMRFKKFWPLFIERVEKEYPNVECILLVTHAASKIALGMSLLGYDNPRMSLNENGDKIRSGSCSLDKYEILKKSYDTIDETDDQTSFTYIPFSDRKWVLTMNGNTEFLSSGEEMNWNFDCVAEAGSDADIKKRQMTKKTSSPIPEADDQTEVETVYISVDIPSGNYKERTEIAKSAILQYSGLETDAPLFRIGNRLYEGSWERLVGTELAFPNAAHVHKKTAGLLSPTEENETTNAGQSKGSSTANDPNIQIQEEDVGLPDSTNTSRDHTGDKEEVQSEKIYRIKERIVLSNVRPM
notes: τ55 (Tfc7), subunit of S. cerevisiae TFIIIC, endogenous subunit in the purified complex; source: endogenous, purified from S. cerevisiae strain SC2342 as part of TFIIIC (TAP tag on τ60)
[1]
  binding: binds

B3: τ131 (Tfc4), τA subunit of endogenous S. cerevisiae TFIIIC (natural protein, UniProt P33339 1-1025, looked up)
chain: MAAGKLKKEQQNQSAERESADTGKVNDEDEEHLYGNIDDYKHLIQDEEYDDEDVPHDLQLSEDEYNSERDSSLLAEFSDYGEISEDDEEDFMNAIREASNFKVKKKKKNDKGKSYGRQRKERVLDPEVAQLLSQANEAFVRNDLQVAERLFNEVIKKDARNFAAYETLGDIYQLQGRLNDCCNSWFLAAHLNASDWEFWKIVAILSADLDHVRQAIYCFSRVISLNPMEWESIYRRSMLYKKTGQLARALDGFQRLYMYNPYDANILRELAILYVDYDRIEDSIELYMKVFNANVERREAILAALENALDSSDEESAAEGEDADEKEPLEQDEDRQMFPDINWKKIDAKYKCIPFDWSSLNILAELFLKLAVSEVDGIKTIKKCARWIQRRESQTFWDHVPDDSEFDNRRFKNSTFDSLLAAEKEKSYNIPIDIRVRLGLLRLNTDNLVEALNHFQCLYDETFSDVADLYFEAATALTRAEKYKEAIDFFTPLLSLEEWRTTDVFKPLARCYKEIESYETAKEFYELAIKSEPDDLDIRVSLAEVYYRLNDPETFKHMLVDVVEMRKHQVDETLHRISNEKSSNDTSDISSKPLLEDSKFRTFRKKKRTPYDAERERIERERRITAKVVDKYEKMKKFELNSGLNEAKQASIWINTVSELVDIFSSVKNFFMKSRSRKFVGILRRTKKFNTELDFQIERLSKLAEGDSVFEGPLMEERVTLTSATELRGLSYEQWFELFMELSLVIAKYQSVEDGLSVVETAQEVNVFFQDPERVKMMKFVKLAIVLQMDDEEELAENLRGLLNQFQFNRKVLQVFMYSLCRGPSSLNILSSTIQQKFFLRQLKAFDSCRYNTEVNGQASITNKEVYNPNKKSSPYLYYIYAVLLYSSRGFLSALQYLTRLEEDIPDDPMVNLLMGLSHIHRAMQRLTAQRHFQIFHGLRYLYRYHKIRKSLYTDLEKQEADYNLGRAFHLIGLVSIAIEYYNRVLENYDDGKLKKHAAYNSIIIYQQSGNVELADHLMEKYLSI
notes: τ131 (Tfc4), subunit of S. cerevisiae TFIIIC, endogenous subunit in the purified complex; Endogenous subunit; source: endogenous, purified from S. cerevisiae strain SC2342 as part of TFIIIC (TAP tag on τ60)
[1]
  binding: binds

B4: τ138 (Tfc3), τB subunit of endogenous S. cerevisiae TFIIIC (protein, UniProt P34111 1-1160)
chain: MVLTIYPDELVQIVSDKIASNKGKITLNQLWDISGKYFDLSDKKVKQFVLSCVILKKDIEVYCDGAITTKNVTDIIGDANHSYSVGITEDSLWTLLTGYTKKESTIGNSAFELLLEVAKSGEKGINTMDLAQVTGQDPRSVTGRIKKINHLLTSSQLIYKGHVVKQLKLKKFSHDGVDSNPYINIRDHLATIVEVVKRSKNGIRQIIDLKRELKFDKEKRLSKAFIAAIAWLDEKEYLKKVLVVSPKNPAIKIRCVKYVKDIPDSKGSPSFEYDSNSADEDSVSDSKAAFEDEDLVEGLDNFNATDLLQNQGLVMEEKEDAVKNEVLLNRFYPLQNQTYDIADKSGLKGISTMDVVNRITGKEFQRAFTKSSEYYLESVDKQKENTGGYRLFRIYDFEGKKKFFRLFTAQNFQKLTNAEDEISVPKGFDELGKSRTDLKTLNEDNFVALNNTVRFTTDSDGQDIFFWHGELKIPPNSKKTPNKNKRKRQVKNSTNASVAGNISNPKRIKLEQHVSTAQEPKSAEDSPSSNGGTVVKGKVVNFGGFSARSLRSLQRQRAILKVMNTIGGVAYLREQFYESVSKYMGSTTTLDKKTVRGDVDLMVESEKLGARTEPVSGRKIIFLPTVGEDAIQRYILKEKDSKKATFTDVIHDTEIYFFDQTEKNRFHRGKKSVERIRKFQNRQKNAKIKASDDAISKKSTSVNVSDGKIKRRDKKVSAGRTTVVVENTKEDKTVYHAGTKDGVQALIRAVVVTKSIKNEIMWDKITKLFPNNSLDNLKKKWTARRVRMGHSGWRAYVDKWKKMLVLAIKSEKISLRDVEELDLIKLLDIWTSFDEKEIKRPLFLYKNYEENRKKFTLVRDDTLTHSGNDLAMSSMIQREISSLKKTYTRKISASTKDLSKSQSDDYIRTVIRSILIESPSTTRNEIEALKNVGNESIDNVIMDMAKEKQIYLHGSKLECTDTLPDILENRGNYKDFGVAFQYRCKVNELLEAGNAIVINQEPSDISSWVLIDLISGELLNMDVIPMVRNVRPLTYTSRRFEIRTLTPPLIIYANSQTKLNTARKSAVKVPLGKPFSRLWVNGSGSIRPNIWKQVVTMVVNEIIFHPGITLSRLQSRCREVLSLHEISEICKWLLERQVLITTDFDGYWVNHNWYSIYEST
[1]
  binding: binds

B5: GST-tagged τ131 (123–566), wild type (domain or fragment, S. cerevisiae, UniProt P33339 123-566, looked up)
chain: VLDPEVAQLLSQANEAFVRNDLQVAERLFNEVIKKDARNFAAYETLGDIYQLQGRLNDCCNSWFLAAHLNASDWEFWKIVAILSADLDHVRQAIYCFSRVISLNPMEWESIYRRSMLYKKTGQLARALDGFQRLYMYNPYDANILRELAILYVDYDRIEDSIELYMKVFNANVERREAILAALENALDSSDEESAAEGEDADEKEPLEQDEDRQMFPDINWKKIDAKYKCIPFDWSSLNILAELFLKLAVSEVDGIKTIKKCARWIQRRESQTFWDHVPDDSEFDNRRFKNSTFDSLLAAEKEKSYNIPIDIRVRLGLLRLNTDNLVEALNHFQCLYDETFSDVADLYFEAATALTRAEKYKEAIDFFTPLLSLEEWRTTDVFKPLARCYKEIESYETAKEFYELAIKSEPDDLDIRVSLAEVYYRLNDPETFKHMLVDVVEMR
notes: also called GST-τ131; source: E. coli BL21 (DE3) Gold, purified (GST column, S200 SEC)
[2]
  binding: no binding (tested: 15 μM in the cell, 150 μM in the syringe)

B6: τ131 (123–566) L469K (domain or fragment, UniProt P33339 123-566)
chain: B5 chain with L347K
[3]
  binding: no binding (tested: 15 μM in the cell, 150 μM in the syringe)
[4]
  binding: no binding (tested: 15 μM in the cell, 150 μM in the syringe)
[5]
  binding: no binding (tested: 900 nM τ131)

B7: τ131 (123–566) D468K (domain or fragment, UniProt P33339 123-566)
chain: B5 chain with D346K
[3]
  binding: no binding (tested: 15 μM in the cell, 150 μM in the syringe)
[4]
  binding: no binding (tested: 15 μM in the cell, 150 μM in the syringe)
[5]
  binding: no binding (tested: 900 nM τ131)

— PMC4490372, “Architecture of TFIIIC and its role in RNA polymerase III pre-initiation complex assembly” (Nature Communications, 2015)
